According to PubChem BioAssay AID1347073 (National Center for Advancing Translational Sciences (NCATS), 2019):
Out of some 45,000 compounds screened, about 200 (0.44%) were called active. Another 7% or so got no clear call; they are omitted. Calls come from the whole dose curve; as a rule, active = well fitted activation curve with a large enough effect; inconclusive = small, poorly fitted or top-dose-only effect; inactive = no such curve, though single readings can be large or run the other way. Some of the results follow.

Assay: qHTS of TDP-43 Inhibitors: NCGC Sytravon Library Screen; note: 0% is about no effect; nearly all actives have a fitted effect of over 55% in size
Conditions: yeast TDP-43 toxicity rescue, BacTiter-Glo growth, 24 h; series mostly up to 46.1 µM; growth rescue (activation): at the top concentration
Procedure, shortened: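 TDP-43-expressing yeast, pregrown in raffinose, seeded at OD600 0.02 in galactose medium with compound for 24 hr at 30 deg C. Growth read by BacTiter-Glo luminescence, so rescue of toxicity appears as activation.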

SMILES	growth rescue (activation)
CC(C)CC(=O)NC(=S)Nc1ccc(NC(=O)c2ccco2)cc1	inactive: 14.7%
COc1ccc(CN2C(=O)c3cccc4cccc2c34)cc1F	inactive: 23.8%
COc1ccc(OC)c(NC(=S)NCc2ccc(S(N)(=O)=O)cc2)c1	inactive: -0.108%
Cc1ccc(S(=O)(=O)N2CCOCC2)cc1C(=O)Nc1ccc2c(c1)CCC2	inactive: 7.02%
COC(=O)Cc1csc(NC(=O)CSc2nncn2C)n1	inactive: -10.3%
CCn1c(COc2ccccc2)nnc1SCC(=O)Nc1ccc(N2CCOCC2)cc1	inactive: -0.0389%
COc1ccc(C(=O)N2CCNC(=O)C2CC(=O)Nc2cc(Cl)ccc2OC)cc1 (stereo not given)	inactive: -6.15%
Cc1ccc(C2C3=C(CC(C)(C)CC3=O)NC3=C2C(=O)c2ccccc23)cc1 (stereo not given)	inactive: 6.73%
CCCC(C)c1nnc(NC(=O)COc2ccc3c(c2)OCO3)s1 (stereo not given)	inactive: -4.73%
CC(=O)c1ccc(-c2cnc3c(NC=O)cc(-c4ccc(N5CCN(C)CC5)cc4)cn23)cc1	inactive: 11.6%
COc1ccc(C2c3ccc(O)cc3Oc3ncn(CC(C)C)c(=N)c32)cc1 (stereo not given)	inactive: 0.543%
Cc1c(C(=O)Nc2ccc(-c3nc4cc(Cl)ccc4o3)cc2)oc2ccccc12	inactive: 1.99%
Cc1oc(-c2cccc(C(F)(F)F)c2)nc1CN1CCC[C@H]1CO	inactive: 2.05%
COc1cccc(-c2cnc(C(O)c3ccc(Cl)cc3)[nH]2)c1 (stereo not given)	inactive: 2.84%
COc1ccc(NC(=O)Nc2cc(C)ccc2F)cc1OC	inactive: 3.07%
O=S(=O)(NC1CCCCC1Nc1ccccc1)c1ccccc1 (stereo not given)	inactive: 12.3%
Nc1nonc1-n1nnc(C(=O)N/N=C/c2ccccc2)c1CN1CCc2ccccc21	inactive: -2.66%
CCOC(=O)c1ccc[n+](C(C)C(=O)c2ccc(-c3ccccc3)cc2)c1 (stereo not given)	inactive: 20.4%
O=C(CCCN1C(=O)/C(=C/c2ccco2)SC1=S)Nc1ccccc1	inactive: 10.8%
Cc1c(/C(O)=C2/C(=O)C(=O)N(CCN(C)C)C2c2ccc(C(C)C)cc2)cnn1-c1ccccc1 (stereo not given)	inactive: 14.5%
CCC(=O)Oc1ccc(C(=O)Nc2cccc(C(=O)NC(C)(C)C)c2)cc1	inactive: 0.607%
CCOc1ccc(-n2c(SCc3ccc([N+](=O)[O-])cc3)nnc2-c2ccccc2)cc1	inactive: 18.8%
CCOc1ccc(-c2ncncc2-c2ccccc2OC)c(O)c1	inactive: 17.6%
CSc1nc(N(C)C)nc(N(C#N)CCOC(C)=O)n1	inactive: 19.9%
Cc1ccc(NC(=O)C(=O)NCc2ccccn2)cc1	inactive: 3.64%
COc1cccc(CN(CC(=O)NCc2ccccc2)C(=O)c2csnn2)c1	inactive: 6.02%
CCOC(=O)CC(NS(=O)(=O)c1ccc2[nH]c(=O)sc2c1)c1ccc(C)cc1 (stereo not given)	inactive: -13.4%

SMILES	growth rescue (activation)
CC(C)C(=O)Nc1ccc2c(c1)nc(CCN1CCN(c3ccccn3)CC1)n2C	inactive: 12.6%
CN(Cc1ccon1)Cc1cn(C)nc1-c1ccc(Oc2ccccc2)cc1	inactive: 10.9%
CCCCCCn1cnc2c(c1=O)c1nc3ccccc3nc1n2/N=C/c1ccco1	inactive: 5.2%
O=C(COc1ccccc1)Nc1ccncc1	inactive: 27%
COc1ccc(CNC(=O)COC(=O)/C=C/c2cccc(Br)c2)cc1OC	inactive: 9.21%
COc1ccc(Cl)cc1-c1cc(C(=O)NCc2ccc(C(F)(F)F)cc2)[nH]n1	inactive: 10.6%
Cc1ccccc1-n1nc(-c2cccnc2)cc1C(=O)N/N=C/c1ccncc1	inactive: 18.7%
COc1ccc(NC(=O)COC(=O)CCNS(=O)(=O)c2ccccc2)cc1OC	inactive: 4.94%
CC(NC(=O)/C(C#N)=C/c1cn(-c2ccccc2)nc1-c1ccc(F)cc1)c1ccccc1 (stereo not given)	inactive: -22.3%
Cc1ccc(OCC(=O)NCCNC(=O)c2ccncc2)cc1	inactive: -0.457%
COc1ccccc1N1CCN(c2ccc([N+](=O)[O-])cn2)CC1	inactive: 14.2%
CCc1ccc(OCc2nnc(SCC(=O)NCC3CCCO3)n2C)cc1 (stereo not given)	inactive: 2.24%
CC1CCCCC1NC(=O)CCCCCn1c(=S)[nH]c2ccccc2c1=O (stereo not given)	inactive: 9.39%
Clc1cccc(N2CCN(c3c4c(nc5nncn35)CCC4)CC2)c1	inactive: 15.7%
C=CCn1c(C(c2ccccc2)c2ccccc2)n[nH]c1=S	inactive: 18.6%
COc1ccc2nc(N=NC3=C(O)CC(C)(C)CC3=O)sc2c1	inactive: 5.73%
COc1ccc(NC(=O)COC(=O)c2ccc(OCc3ccc(Cl)cc3Cl)c(OC)c2)c(OC)c1	inactive: 17.1%
CC1(C(=O)NS(=O)(=O)c2ccc(F)cc2F)CCN1C(=O)C/C=C/c1ccccc1 (stereo not given)	inactive: -3.22%
CC1CN(CC(O)COC(c2ccc(Cl)cc2)c2ccc(Cl)cc2)CC(C)O1 (stereo not given)	inactive: 19.4%
COC(=O)CN(c1cc([N+](=O)[O-])ccc1OC)S(C)(=O)=O	inactive: -3.11%
O=C(O)CCCN1C(=O)c2ccc(C(=O)c3cccc([N+](=O)[O-])c3)cc2C1=O	inactive: 0.792%
Cc1onc(-c2c(F)cccc2Cl)c1C(=O)OCN1C(=O)c2ccccc2C1=O	inactive: -5.17%
CCOc1ccc(CC(=O)NNC(=O)/C=C/C(=O)O)cc1	inactive: -8.41%
Cc1cc(NC(=O)COC(=O)CCS(=O)(=O)c2cc(Cl)ccc2Cl)no1	inactive: 2.87%
Cn1c(SCc2cccc(F)c2)nnc1-c1ccncc1	inactive: 20.1%
CCOC(=O)c1c(CSc2ccc(CC)cc2)oc2ccc(O)c(CN(C)C)c12	inactive: 8.36%
O=S(=O)(/N=C(/Nc1cccc2ccccc12)c1ccccc1)c1cccs1	inactive: 28.3%

SMILES	growth rescue (activation)
COc1c(Cl)cnn(-c2ccccc2)c1=O	inactive: -4.54%
Cc1ccc(S(=O)(=O)N(CC(=O)NCc2ccncc2)Cc2ccc(F)cc2)cc1	inactive: -14.9%
CCOC(=O)CCC(=O)N(CCN(C(=O)CCC(=O)OCC)c1ccccc1)c1ccccc1	inactive: 10.6%
O=C(/C=C/Nc1ccc(F)c(Cl)c1)c1ccco1	inactive: 24.8%
O=C(COc1cc(O)c2c(=O)c3ccccc3oc2c1)OCc1ccccc1	inactive: -1.62%
O=C(NCCc1c[nH]c2ccccc12)C1CCN(S(=O)(=O)c2ccc(F)cc2)CC1	inactive: 3.25%
N#Cc1ccccc1NC(=O)CSc1cn[nH]n1	inactive: 2.86%
COc1cccc(C2c3[nH]c4ccccc4c3CCN2C(=O)Cn2cncn2)c1OC (stereo not given)	inactive: 6.35%
COc1ccc(N(CC(=O)NC2CC3CCC2C3)S(=O)(=O)c2ccc(C)cc2)cc1OC (stereo not given)	inactive: -2.34%
CCOC(=O)C1CCCN(C2=NC(=O)/C(=C/c3ccc(O)c(OCC)c3)S2)C1 (stereo not given)	inactive: 17.3%
Cc1cc2oc(=O)c(CC(=O)NCCCN(C)C)c(C)c2c2occ(C(C)(C)C)c12	inactive: -6.1%
CSc1ccc(C(=O)C2CCCN(Cc3ccc(N4CCNC4=O)cc3)C2)cc1 (stereo not given)	inactive: 7.04%
CCOC(=O)C1(CCOC)CCN(C(=O)c2ccccc2-c2cccc(C)c2)CC1	inactive: 12.7%
COc1ccc(-c2cnc3c(NC=O)cc(-c4cccc(NS(C)(=O)=O)c4)cn23)cc1OC	inactive: 2.38%
CC(C)CNC(CC(=O)Nc1cccc([N+](=O)[O-])c1)C(=O)O (stereo not given)	inactive: 22%
O=C1CCC(C(=O)N2CCCCO2)CN1Cc1ccc(Cl)cc1 (stereo not given)	inactive: -2.91%
Cc1cc2oc(C(=O)NCCc3ccc(S(N)(=O)=O)cc3)cc(=O)c2cc1C	inactive: -4.36%
O=C(COC(=O)CCOc1ccccc1)NCCC1=CCCCC1	inactive: -3.42%
CC(=O)Nc1ccc(Nc2nc(-c3sc(NC(C)=O)nc3C)cs2)cc1	inactive: 4.36%
CN(Cc1ccccc1)C(=O)COC(=O)c1ccc[nH]c1=O	inactive: -10.1%
O=C(CN1CCN(S(=O)(=O)c2ccc(Br)cc2)CC1)N/N=C/c1cccnc1	inactive: 7.9%
O=C(N/N=C/c1ccccn1)c1cc(C2CC2)[nH]n1	inactive: 8.39%
O=C(NCCS(=O)CCNC(=O)C(F)(F)F)C(F)(F)F	inactive: 9.5%
Cc1ccc(NCC(=O)N=Nc2c(O)[nH]c3ccc([N+](=O)[O-])cc23)cc1	inactive: -13.3%
CCC(c1nnc(SCC(=O)Nc2ccc(S(N)(=O)=O)cc2)n1Cc1ccccc1)N(C)C (stereo not given)	inactive: -6.82%
COc1cc(CCC(=O)OCC(=O)Nc2ccc(F)c(F)c2F)cc(OC)c1OC	inactive: 8.93%
O=c1c(-c2ccc([N+](=O)[O-])cc2)coc2c(O)c(O)ccc12	inactive: -5.72%

SMILES	growth rescue (activation)
O=C(NCc1ccccc1)C1CCCN(C(=O)NCc2ccccc2)C1 (stereo not given)	inactive: 8.42%
O=c1c2ccccc2sc2ccc(Cl)cc12	inactive: -4.59%
Cc1cc(C)cc(NC(=O)C(c2ccccc2)N2CCCC2)c1 (stereo not given)	inactive: 4.95%
COc1ccc(C(c2c(NC(=O)c3ccco3)sc(C)c2C)N2CCOCC2)cc1 (stereo not given)	inactive: 14.3%
CCC(NS(=O)(=O)c1ccc(OC)cc1)C(=O)NCCc1ccccc1 (stereo not given)	inactive: 13.3%
CCN1CCCC1CN(Cc1cc2ccc(C)cc2[nH]c1=O)C(=S)Nc1cccc(OC)c1 (stereo not given)	inactive: -21.3%
O=C(CCSc1nc(-c2ccco2)cc(C(F)(F)F)n1)NCC1CCCO1 (stereo not given)	inactive: 17.1%
CCOC(=O)c1cc(-c2ccccc2)n(CCC(=O)N2CCN(c3ccccn3)CC2)c1C	inactive: 3.47%
NC(=O)CSc1ccc(F)cc1	inactive: 9.59%
COc1ccc(CCNCc2c(-c3ccccc3)n(C)c3ccccc23)cc1	inactive: -0.0813%
NC(=O)C1CCN(c2nc3ccccc3nc2NS(=O)(=O)c2ccc(Br)cc2)CC1	inactive: 6.35%
COC(=O)c1ccc(CC2(C)C(=O)Nc3ccc(OC(F)(F)F)cc32)o1 (stereo not given)	inactive: -6.69%
O=C(O)CCn1c(-c2ccccn2)nc2ccccc21	inactive: 0.438%
O=C(O)c1csc(Cc2ccccc2)n1	inactive: 6.15%
CCn1c(=O)c2sccc2n(CC(=O)NC2CCCCC2)c1=O	inactive: 14.3%
O=[N+]([O-])c1ccc(O)c(/C=N/Nc2ccccn2)c1	inactive: -92.7%
O=C1OCCN1CC(=O)N1CCc2c([nH]c3ccccc23)C1c1ccccn1 (stereo not given)	inactive: 6.25%
COc1ccc(NC(=O)/C(=C/c2cccnc2)NC(=O)c2cccs2)cc1	inactive: 4.1%
CCC(C)NC(=O)CN(C1CCCCC1)S(C)(=O)=O (stereo not given)	inactive: -13.7%
CC(O)(c1cccnc1)c1nc(-c2cccc3cccnc23)cs1 (stereo not given)	inactive: 3.62%
Cn1cnnc1SCC(=O)Nc1ncc([N+](=O)[O-])s1	inactive: -13.7%
Cc1cccc(C)c1NC(=O)C1(NC(=O)Cn2cccc([N+](=O)[O-])c2=O)CCCCC1	inactive: -34.6%
Cc1noc(C)c1CSc1nnc2n(-c3ccccc3)c(=O)c3ccccc3n12	inactive: 30.8%
COc1ccccc1-c1cc(N)n(S(=O)(=O)c2cccc3nsnc23)n1	inactive: 23.4%
